These results are taken from PubChem BioAssay AID1963862 (Molecular Pharmacology Branch, DTP, NCI, 2024).

The structures appear in SMILES notation. The source holds more than one record for some entries. The list is limited to them. There may be further records. The records of an entry are repeats across runs, samples, wells, individuals or studies.

This assay has as its system KRAS patient-derived spheroids with HUVEC/MSC, viability. Nature of the assay: Anticancer human tumor 941728-121-R-J1-PDC patient-derived lung adenocarcinoma cell line growth inhibition [KRAS2]. The conditions noted are these: for IC50: compound alone; for viability, T/C: stronger effect = lower value. The source says:
Multicellular complex tumor spheroid response to RAS pathway inhibitors in combination with a targeted agents in patient-derived cell lines with oncogenic KRAS variants from multiple cancer types
A high-throughput screen of multi-cell type tumor spheroids was designed to identify active combinations of targeted small molecules and KRAS pathway inhibitors. Complex spheroids include a stromal component modeled by human endothelial cells (HUVEC) and fibroblasts modeled by human mesenchymal stem cells (MSCs). The concentration ranges selected for each drug and investigational agent were based upon clinically achievable concentrations if the clinical Cmax of the agent was known.
Compounds. The drugs and investigational agents: BI-3406 (NSC825286), BAY-293 (NSC824723), batoprotafib (TNO155; NSC825523), sotorasib (AMG 510; NSC818433), MRTX1257 (NSC819558), elimusertib (BAY 1895344; NSC800525), molibresib (GSK525762; NSC774829), temuterkib (LY3214996; NSC803410), venetoclax (NSC766270), alisertib (NSC759677), olaparib (NSC753686), talazoparib (NSC767125), erdafitinib (NSC781556), ipatasertib (NSC767898), cabozantinib (NSC761068), nintedanib (NSC756659), abemaciclib (NSC768073), docetaxel (NSC628503), trametinib (NSC758246), and sapanisertib (NSC764658) were obtained from the National Cancer Institute (NCI) Developmental Therapeutics Program Chemical Repository. The FDA-approved anticancer drug set is available from the Developmental Therapeutics Program. […] The stock solutions were prepared in dimethyl sulfoxide (DMSO, Sigma-Aldrich, St. Louis, MO, cat. D2650) at 800-fold the tested concentration and stored at -70 degrees C prior to their use. All drugs and investigational agents were tested over a range starting from a high concentration at or near the clinical Cmax and decreasing in half-log increments. If the clinical Cmax for an agent had not been determined, the highest concentration tested was 10 microM.
Cell Culture. All cells were maintained in an incubator at 37 degrees C and 5% CO2 with 95% humidity. The PDC lines were cultured according to standard operating procedures established by the NCI PDMR (https://pdmr.cancer.gov/sops/default.htm). Briefly, all PDCs were thawed and cultured in Matrigel-coated flasks prepared with a working solution of 1X Ham's F-12 nutrient mix, without supplementation (Invitrogen, Waltham, MA, cat. 11765054), 100 U/mL penicillin-streptomycin (Invitrogen, cat. 15140122), and 2.5% Matrigel (Corning Inc., Corning, NY, cat. 354248) for the first three passages. All PDCs were cultured in complete DMEM/F-12 media containing advanced DMEM/F-12 (Invitrogen, cat. 12634028), 4.9% defined fetal bovine serum, heat inactivated (HyClone Laboratories Inc., Logan, UT, cat. SH30070.03HI), 389 ng/mL hydrocortisone (Sigma-Aldrich, cat. H4001), 9.7 ng/mL human EGF recombinant protein (Invitrogen, cat. PHG0313), 23.4 microg/mL adenine (Sigma-Aldrich, cat. A2786), 97.3 U/mL penicillin-streptomycin (Invitrogen, cat. 15140122), 1.9 mM L-glutamine (Invitrogen, cat. 25030081), and 9.7 microM Y-27632 dihydrochloride (Tocris Bioscience, Bristol, United Kingdom, cat. 1254). The PDCs were cultured in complete DMEM/F12 media without 9.7 microM Y-27632 dihydrochloride for at least two passages prior to the screen. The established cell line HOP-62 was cultured in RPMI 1640 medium, HEPES (Invitrogen, cat. 22400105) with 10% defined fetal bovine serum (HyClone Laboratories Inc., cat. SH30070.03) and 2 mM L-glutamine (Invitrogen, cat. 25030081). The pooled donor HUVEC were cultured in endothelial cell growth medium 2 (PromoCell, Heidelberg, Germany, cat. C-22011) and the hMSC were cultured in mesenchymal stem cell growth medium 2 (PromoCell, cat. C-28009). For all experiments, HUVEC and hMSC were used at passages </=5, while the malignant cell lines were used at passages </=15. […]
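Further: spheroids exposed to agents for seven days before readout.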

A word on the IC50: it is the midpoint of a concentration-inhibition curve. With `CC(=O)Nc1cccc(-n2c(=O)n(C3CC3)c(=O)c3c(Nc4ccc(I)cc4F)n(C)c(=O)c(C)c32)c1`, the IC50 is reported as 5.97, 2.02, 1.71, 2.53, 0.971 nM.

As usually defined, the viability, T/C is the ratio of treated to control. As for `C=CC(=O)N1CCN(c2nc(OCC3CCCN3C)nc3c2CCN(c2cccc4cccc(C)c24)C3)CC1CC#N` (stereo not given), the viability, T/C runs as follows: (compound alone 0.0316 µM) 39.5, 26, 34.6, 32.3, 35, 31.1, 16.5, 44.1, 25.8, 19.3, 31.4, 24.9, 28.8, 32, 23.9, 32.1, 36.2%; (compound alone 0.316 µM) 32.8, 23, 31.7, 32.5, 35.2, 29.4, 13.3, 37.9, 23.6, 18.5, 30.6, 20.6, 65.4, 25.4, 23.3, 26.6, 32.7%; (compound alone 3.16 µM) 48.2, 0.56, 1.79, 0.6, 0.36, 0.24, 0.31, 0.11, 0.12, 0.13, 0.25, 0.75, 2.2, 4.32, 2.74, 1.72, 5.09%.

Take `O=C(c1cc(Cc2n[nH]c(=O)c3ccccc23)ccc1F)N1CCN(C(=O)C2CC2)CC1`: the viability, T/C (compound alone 0.0316 µM) is 85.8, 82.2, 97.8, 96, 113%; the viability, T/C (compound alone 1 µM) is given as 89.3, 75.8, 88.5, 101, 98.2%; the viability, T/C (compound alone 3.16 µM) is 81.1, 77.2, 94.3, 103, 96.9%.

Take `Cn1nccc1Nc1nccc(-c2cc3c(s2)C(C)(C)N(CCN2CCOCC2)C3=O)n1`: the half-maximal inhibitory concentration (IC50) is on record as 240 nM, 244 nM, > 10 µM. For the same compound, the viability, T/C (compound alone 0.1 µM) was 60.9, 67.3, 86.3, 92, 84%.

As for `CCNC(=O)CC1N=C(c2ccc(Cl)cc2)c2cc(OC)ccc2-n2c(C)nnc21` (stereo not given), the IC50 is recorded as 3.32 µM, 2.6 µM, 2 µM, 323 nM, 698 nM. Besides, the viability, T/C (compound alone 0.1 µM) is reported as 98.6, 84.2, 78.1, 71.3, 76.1%. Also, the viability, T/C (compound alone 1 µM) is reported as 66.5, 56.7, 57.9, 25.5, 44.5%. Further, for the setting “compound alone 3.16 µM”, the viability, T/C was 50.6, 46.4, 47.6, 20.6, 44.8%. Also, under “compound alone 10 µM”, the viability, T/C is reported as 41, 45.9, 39, 17.7, 40%.

On to `Cn1ncnc1[C@H]1c2n[nH]c(=O)c3cc(F)cc(c23)N[C@@H]1c1ccc(F)cc1`, for which the viability, T/C runs as follows: (compound alone 0.0316 µM) 72.2, 89.8, 78.2, 98.8, 81.5%; (compound alone 0.1 µM) 80.4, 78.8, 69.2, 96.8, 85.1%.

On to `CC(C)n1nc(-c2ccc3oc(N)nc3c2)c2c(N)ncnc21`, for which the IC50 was 1.08 nM, 43.2 nM, > 100 nM, 1.7 nM. Moreover, the viability, T/C (compound alone 0.001 µM) is 51.4, 87.2, 78.2, 80.5, 68.8%. Besides, the viability, T/C (compound alone 0.00316 µM) is reported as 30.9, 61.2, 54.3, 70.4, 28.2%. For the same compound, the viability, T/C (compound alone 0.01 µM) is reported as 30.9, 62.3, 53.9, 55.5, 26.6%. Moreover, for the setting “compound alone 0.0316 µM”, the viability, T/C is reported as 28.3, 52.6, 62.7, 53.1, 19.8%. Moreover, under “compound alone 0.1 µM”, the viability, T/C is on record as 28.2, 45.2, 58.1, 51.3, 14.2%.

Regarding `CC1COCCN1c1cc(-c2ccnn2C)c2ccnc(-c3ccn[nH]3)c2n1` (stereo not given), the IC50 is reported as 91.6, 51.6, 83.3, 169, 22.4 nM. Also, under “compound alone 0.01 µM”, the viability, T/C is reported as 85.7, 96.9, 99.1, 85.4, 70.9%. Also, under “compound alone 0.0316 µM”, the viability, T/C is recorded as 60.4, 54.8, 66, 57.5, 40.7%.

Take `COc1cc(OC)cc(N(CCNC(C)C)c2ccc3ncc(-c4cnn(C)c4)nc3c2)c1`: the IC50 is on record as 4.59, 6.16, 9.32, 1.27, 8.18 µM. Where the note is “compound alone 0.0316 µM”, the viability, T/C is recorded as 93.8, 91.3, 121, 115, 107%. Also, the viability, T/C (compound alone 1 µM) was 76.5, 88.2, 107, 41.4, 93.4%. Further, the viability, T/C (compound alone 3.16 µM) is 65.9, 79.1, 92.6, 40.1, 69.8%. Where the note is “compound alone 10 µM”, the viability, T/C is reported as 23.1, 29.5, 46.5, 2.34, 45.3%.
